The structures appear in SMILES notation. The whole screen tested about 1,000 compounds, of which about 360 (36%) were called active.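 Rule for the calls: active = Fitted curve of melting temperature shift crosses the 1.0 threshold at or below the sample's highest valid tested concentration; inconclusive = Flat fit with activity 30 to 70, or invalid fit; inactive = Opposite direction, flat within 30, or no crossing.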 This part holds few or none of the hits. Square brackets hold non-standard residues; d marks the D form. Peptide text beside a SMILES is read from it. * marks the point of attachment. ξ: configuration not given here. ξArg(NO2) = N=C(NCCCC(N)C(=O)O)N[N+](=O)[O-]; Bz = O=C(c1ccccc1)*

The target in this assay is Fibroblast growth factor 22 (Homo sapiens) (UniProt Q9HCT0). The assay is described as follows: FGF22 ligand-induced thermal stabilization – biophysical, thermal shift, cherry-pick, FGF22 synaptogenesis inhibitor project, dose response (AID 687022). Note: reference of the scale not given here. To be noted: recombinant FGF22 thermal shift, SYPRO orange melting; at 38 µM (top of the series) unless noted.
Chain of UniProt Q9HCT0 (Q9HCT0 whole entry, looked up): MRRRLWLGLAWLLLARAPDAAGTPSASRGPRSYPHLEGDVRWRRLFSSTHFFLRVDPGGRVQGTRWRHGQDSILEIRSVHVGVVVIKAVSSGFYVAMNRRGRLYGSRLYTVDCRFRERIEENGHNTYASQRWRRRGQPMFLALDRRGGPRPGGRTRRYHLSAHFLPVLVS
Consider `CC(=O)Nc1ccc(S(=O)(=O)N2Cc3ccccc3-n3nncc3C2)cc1`, for which the Tm shift activity was inactive: -0.297%.

Regarding `C/C=C/c1ccc([C@@H]2[C@H]3CN(C(=O)Cc4ccncc4)CCCCN3[C@H]2CO)cc1`, the Tm shift activity is inactive: -0.193%.

Turning to `CN(C)Cc1c[nH]c2ccccc12`, the Tm shift activity was inactive: -0.319%.

For `CC=Cc1ccc2n(c1=O)C[C@H]1[C@H](CO)[C@@H](C(=O)N(C)C)N[C@@H]21` (mixture of isomers), the Tm shift activity is inactive: -0.052%.

Take `COc1cccc(-c2ccc([C@@H]3[C@@H](CO)N4CCCCN(C(=O)Cc5ccncc5)C[C@@H]34)cc2)c1`: the Tm shift activity is inactive: -0.031% [at 42 µM].

Consider `N/C(=N\[N+](=O)[O-])NCCCC(NC(=O)CNC(=O)c1ccccc1)C(=O)O` (configuration not stated) (Bz-Gly-[ξArg(NO2)]-OH), for which the Tm shift activity is inactive: -0.126%.

On to `Cc1cc(OCC(=O)NC(Cc2ccc(Cl)cc2)C(=O)O)c2c3c(c(=O)oc2c1)CCC3` (configuration not stated), for which the Tm shift activity is inactive: 14.7% [at 19.5 µM].

`OC(CNCCc1c[nH]c2ccccc12)c1ccccc1` (configuration not stated): the Tm shift activity is inactive: -0.172%.

With `O=C(Nc1ccccc1)c1cccn(Cc2ccccc2)c1=O`, the Tm shift activity is inactive: 0.189%.

For `Cc1ccc(S(=O)(=O)N(C)C[C@H]2Oc3cc(Br)ccc3S(=O)(=O)N([C@H](C)CO)C[C@@H]2C)cc1`, the Tm shift activity is inactive: 0.593%.

Regarding `O=C(c1cccc2ccccc12)C1CCCN(Cc2ccon2)C1` (configuration not stated), the Tm shift activity is inactive: -0.15%.

On to `O=C(NCCN1CCC2(CC1)C(=O)NCN2c1ccccc1)c1ccc2ccccc2c1`, for which the Tm shift activity is inactive: -0.261%.
